Results reported in PubChem BioAssay AID488969 (Vanderbilt High Throughput Screening Facility, 2010).
In all, about 110,000 compounds were measured (“z-score”: median about -0.1, highest 2% from about 2 on). This is one part of the list.

Target: Metabotropic glutamate receptor 8 (Rattus norvegicus) (UniProt P70579)
Assay: rat mGluR8 modulators via GIRK flux, primary screen, cell-based, thallium flux, HTS (AID 488969)
Details: HEK293 rat mGluR8, GIRK (G protein-gated inwardly rectifying potassium channel) thallium flux, FluoZin2; at 10 µM; stronger effect = higher value; submaximal glutamate (EC20) added with thallium

Sequence of UniProt P70579 (P70579 whole entry, looked up): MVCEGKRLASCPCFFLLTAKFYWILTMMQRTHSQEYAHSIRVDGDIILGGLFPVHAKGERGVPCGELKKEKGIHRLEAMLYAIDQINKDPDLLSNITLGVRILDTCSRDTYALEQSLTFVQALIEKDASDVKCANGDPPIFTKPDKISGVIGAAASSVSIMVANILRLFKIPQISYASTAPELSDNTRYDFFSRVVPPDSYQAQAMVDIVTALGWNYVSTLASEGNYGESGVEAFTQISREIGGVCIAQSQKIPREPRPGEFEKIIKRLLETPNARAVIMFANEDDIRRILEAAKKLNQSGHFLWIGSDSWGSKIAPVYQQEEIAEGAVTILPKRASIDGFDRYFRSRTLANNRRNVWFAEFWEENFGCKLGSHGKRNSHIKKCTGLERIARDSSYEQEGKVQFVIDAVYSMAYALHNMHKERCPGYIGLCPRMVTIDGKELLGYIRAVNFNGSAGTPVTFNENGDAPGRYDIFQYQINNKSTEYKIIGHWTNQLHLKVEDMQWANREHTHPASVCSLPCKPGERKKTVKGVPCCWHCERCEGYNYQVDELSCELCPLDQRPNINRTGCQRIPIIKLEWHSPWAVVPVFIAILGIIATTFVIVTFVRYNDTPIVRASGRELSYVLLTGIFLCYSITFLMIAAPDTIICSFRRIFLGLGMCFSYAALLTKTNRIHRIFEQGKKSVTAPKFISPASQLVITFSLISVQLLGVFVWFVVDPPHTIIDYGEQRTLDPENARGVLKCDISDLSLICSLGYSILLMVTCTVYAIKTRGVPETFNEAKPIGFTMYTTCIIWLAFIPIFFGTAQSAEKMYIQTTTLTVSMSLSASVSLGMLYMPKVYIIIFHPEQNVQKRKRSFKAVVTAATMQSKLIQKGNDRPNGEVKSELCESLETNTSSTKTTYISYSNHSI

First: CCn1c(SCC(=O)Nc2nc(-c3ccc(C)cc3)cs2)nnc1-c1ccccc1O
Second: Cc1ccc(C(=O)NCCc2nnc3ccc(SCC(=O)Nc4ccccc4C)nn23)cc1
The z-score of the first is lower: -1.61 for the first, -0.0798 for the second.

Going from `O=C(NC1CC1)c1cc(Cl)ccc1[N+](=O)[O-]` to `C/C(Cn1nnc([N+](=O)[O-])n1)=N\NC(=O)c1cccc(Cl)c1`, the z-score falls from -0.0765 to -0.23.

Going from `CN1CCN(C2=Cc3ccccc3Sc3cc(F)c(F)cc32)CC1` to `COc1ccc(N2CCN(CC(=O)Nc3nnc(-c4ccccc4)s3)CC2)cc1`, the z-score rises from 0.49 to 0.751.

Going from `CCCN(CCC)c1ncnc2c1cnn2-c1ccc(OC)cc1` to `CCc1ccc(CCC(=O)Nc2ccc(OC)cc2)o1`, the z-score rises from -0.333 to -0.00289.

Compared with `NC1=NC(=O)S/C1=C\c1ccc(O)cc1`, `Cn1nc(C(F)(F)F)c2cc(C(=O)Nc3ccc(Cl)cc3)sc21` is higher in z-score: -0.241 for the first, 0.176 for the second.

First: CC(=O)[C@H]1[C@@H]2C(=O)N(c3cccc(Cl)c3)C(=O)[C@@H]2[C@H]2c3ccccc3C=CN21
Second: O=C(Nc1cccc(Cl)c1)Nc1ccc2c(c1)C(=O)OC2
The z-score of the first is higher: 0.0244 for the first, -0.0474 for the second.

Going from `O=C(c1cccc(S(=O)(=O)N2CCOCC2)c1)N1CCN(c2ccc(F)cc2)CC1` to `O=C(Nc1cc(C(=O)N2CCCC2)ccc1N1CCCC1)C1CC1`, the z-score rises from -0.3 to 0.345.

Compared with `Cc1ccc(C(=O)c2ccc([N+](=O)[O-])cc2)cc1C`, `N/C(=N\OC(=O)c1ccc2ccccc2c1)c1cccc([N+](=O)[O-])c1` is lower in z-score: 0.56 for the first, -0.297 for the second.

Going from `CCC(C)NC(=O)C1CCC(=O)N1Cc1ccc(C)cc1` (stereo not given) to `COc1ccc(C(=O)/C=C/NCc2ccc(C)cc2)cc1`, the z-score falls from 0.401 to -0.0177.

Going from `N=C1/C(=C/c2cccn2-c2cccc([N+](=O)[O-])c2)C(=O)N=C2SC=CN12` to `CN(c1ccc(Cl)cc1)c1cc(=O)n(C)c2ccccc12`, the z-score falls from -0.207 to -0.43.

Going from `Cc1ccc(S(=O)(=O)NC(C)(C)CSc2nncn2N)cc1` to `COc1ccc(S(=O)(=O)Nc2nc3ccccc3s2)cc1OC`, the z-score falls from 0.228 to -0.209.

Compared with `Cc1cccc(OCC(O)Cn2c(NCc3cccnc3)nc3c2c(=O)[nH]c(=O)n3C)c1` (stereo not given), `Cn1c(NCC(O)CO)nc2c1c(=O)n(Cc1ccc(Cl)c(Cl)c1)c(=O)n2C` (stereo not given) is lower in z-score: 0.247 for the first, -0.188 for the second.

Going from `CC(C)CCNC1=NCCCCC1` to `CC(C)c1nc2ccc(NC(=O)C34CC5CC(CC(C5)C3)C4)cc2[nH]1`, the z-score falls from 0.614 to -0.198.

First: Cc1ccccc1NC(NC(=O)c1cccs1)C(Cl)(Cl)Cl (stereo not given)
Second: Cc1cccc(NC(=O)N(C)Cc2cccs2)c1
The z-score of the first is lower: -0.934 for the first, -0.194 for the second.

Compared with `O=C(N[C@@H](Cc1ccccc1)C(=O)O)c1cccnc1`, `Cc1noc(C)c1COc1cccc(C(=O)Nc2ccc(OCc3ccccc3)cc2)c1` is lower in z-score: 1.48 for the first, -0.0143 for the second.

First: O=S(=O)(c1ccccc1)N1CCCC1c1nc2ccccc2s1 (stereo not given)
Second: Cc1nc(NCCc2ccccc2)c2oc3ccccc3c2n1
The z-score of the first is lower: -0.228 for the first, -0.143 for the second.

Going from `CCOC(=O)c1cnc(SCc2cccc(C)c2)nc1N` to `CCOc1ccc(N(CC(=O)Nc2cccc(F)c2)S(=O)(=O)c2c(C)noc2C)cc1`, the z-score rises from -0.132 to -0.118.

Going from `COC(=O)N/N=C/c1cc(Cl)cc(Cl)c1OCc1ccc(F)cc1` to `COCCN1C(=O)N(c2cccc(C)c2)C(=O)C1CC(=O)Nc1ccc(F)cc1` (stereo not given), the z-score falls from 1.09 to 0.255.

First: CCc1nnc(NC(=O)CSc2nc3ccccc3c(=O)n2CCCOC)s1
Second: CCCCn1c(NC(=O)CC)c(C#N)c2nc3ccccc3nc21
The z-score of the first is higher: -0.0586 for the first, -0.751 for the second.

First: COc1cccc(-c2csc3nnc(SCC(=O)c4ccc(NC(C)=O)cc4)n23)c1
Second: Cc1ccc(C(=O)CSc2nc(-c3ccccc3)ccc2C#N)cc1
The z-score of the first is lower: -0.299 for the first, -0.197 for the second.

Going from `CC1CCN(C(=S)NC(=O)C2CCCCC2)CC1` to `CCN(Cc1ccccc1)C(=O)C1CCC(CNc2c(N3CCOCC3)c(=O)c2=O)CC1` (stereo not given), the z-score falls from 0.322 to 0.127.

First: CC(C)(C)NC(=O)COC(=O)c1ccccc1OCC(=O)Nc1ccc(Br)cc1
Second: CCCC1=C(C(=O)OCC)C(c2ccc(NC(C)=O)cc2)NC(=O)N1 (stereo not given)
The z-score of the first is higher: -0.154 for the first, -0.453 for the second.

Compared with `CC(C)[C@H]1CC[C@@H](C)C(C(=O)c2ccccc2)C1=O` (stereo not given in full), `COC(=O)C1C(=O)NCC1c1ccccc1` (stereo not given) is lower in z-score: 0.151 for the first, -0.506 for the second.

First: COc1cc(C(=O)Nc2ccc(S(=O)(=O)N3CCc4ccccc43)cc2)cc(OC)c1OC
Second: COc1ccc(S(=O)(=O)NNC(=O)c2csc(-n3nc(C)cc3C(F)(F)F)n2)cc1OC
The z-score of the first is higher: 0.123 for the first, -0.535 for the second.

First: CC(C)NC(=O)Nc1cccs1
Second: CCC(C)NC(=O)CCS(=O)(=O)c1ccc(Br)s1 (stereo not given)
The z-score of the first is lower: -0.115 for the first, -0.0618 for the second.

Going from `COc1ccccc1OCCn1cc(/C=C(\C#N)C(=O)NCc2cccs2)c2ccccc21` to `Cc1nn2c(-c3cccc(NC(=O)CSc4nc5ccccc5o4)c3)nnc2c2ccccc12`, the z-score rises from -0.349 to 0.406.

Going from `Cc1c(NC(=O)c2ccc(Br)o2)c(=O)n(-c2ccccc2)n1C` to `C=CCn1c(SCC(=O)Nc2c(C)n(C)n(-c3ccccc3)c2=O)nc2sc(C)c(C)c2c1=O`, the z-score falls from 0.216 to -0.594.

Going from `O=C(NC1CCCCC1)C(c1ccc(F)cc1)N(C(=O)c1cccs1)c1ccc2c(c1)OCO2` (stereo not given) to `CCOC(=O)/C=c1\s/c(=C\c2ccc(-c3ccccc3)cc2)c(=O)n1CC(=O)NCc1ccc2c(c1)OCO2`, the z-score falls from 0.326 to -1.92.

First: FC(F)Oc1ccc(NC(=S)NCc2ccccc2)cc1Cl
Second: COc1cc(CN(C)Cc2ccccc2)cc(OC)c1O
The z-score of the first is higher: 0.178 for the first, 0.167 for the second.

Compared with `Cn1c(SC2CCCCC2=O)nnc1-c1ccncc1` (stereo not given), `Cc1nnc2sc(-c3ccco3)nn12` is higher in z-score: -0.152 for the first, 0.144 for the second.

First: CCOc1ccc(N(CC(=O)NCC2CCCO2)S(=O)(=O)c2ccc(Cl)cc2)cc1 (stereo not given)
Second: COc1ccc(N2CC(C(=O)O)CC2=O)cc1 (stereo not given)
The z-score of the first is lower: -0.333 for the first, -0.141 for the second.

Going from `O=c1c2ccccc2n2c(-c3ccc(C(F)(F)F)cc3)nnc2n1Cc1ccccc1` to `O=C(CNC(=O)C(c1ccccc1)c1ccccc1)N/N=C/c1ccc(O)c([N+](=O)[O-])c1`, the z-score falls from -0.194 to -0.819.

First: CC1(C)CC(=O)C=C(Nc2ccc(C(=O)O)cc2)C1
Second: Cc1ccc(Nc2nnc(SCC(=O)NCCN3C(=O)CSC3=O)s2)cc1C
The z-score of the first is higher: 0.0594 for the first, -0.143 for the second.

Compared with `Fc1ccccc1OCCCN1CCOCC1`, `Fc1ccc(CSc2ccc(-c3ccco3)nn2)cc1` is higher in z-score: -0.161 for the first, 0.169 for the second.

Compared with `CC(C)Nc1nc(NC(C)C)nc(OCCOC(=O)Nc2ccccc2)n1`, `Cc1cc(NC(c2cccnc2)c2ccc3cccnc3c2O)no1` (stereo not given) is higher in z-score: -0.861 for the first, -0.344 for the second.
